This is an account of results in PubChem BioAssay AID485344 (National Center for Advancing Translational Sciences (NCATS), 2010).

In all, about 340,000 compounds went through this assay and about 6,900 (2%) were called active. No stated cut-off is given here; in the data, active means inhibition above about 30%; inactive means below that, where a call was filed. The list shows a part of the results, in another mix than the full data. The source gives no active or inactive call for entries shown without one.

In the experiment the target is D(2) dopamine receptor (Homo sapiens) (UniProt P14416). Description: HTS Assay for Allosteric Antagonists of the Human D2 Dopamine Receptor: Primary Screen for Antagonists. Further: 0% is about no effect. As to conditions: HEK293 TREx D2 cells, calcium flux, dopamine EC80; at 10 µM; stronger effect = higher value. A digest of the protocol: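 Overnight-induced (tetracycline, 30 C) HEK293 T-REx cells carrying force-coupled D2 receive a no-wash calcium dye, then compound, then EC80 dopamine at 180 s; signals are read kinetically throughout.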
UniProt P14416, sequence (P14416 whole entry, looked up): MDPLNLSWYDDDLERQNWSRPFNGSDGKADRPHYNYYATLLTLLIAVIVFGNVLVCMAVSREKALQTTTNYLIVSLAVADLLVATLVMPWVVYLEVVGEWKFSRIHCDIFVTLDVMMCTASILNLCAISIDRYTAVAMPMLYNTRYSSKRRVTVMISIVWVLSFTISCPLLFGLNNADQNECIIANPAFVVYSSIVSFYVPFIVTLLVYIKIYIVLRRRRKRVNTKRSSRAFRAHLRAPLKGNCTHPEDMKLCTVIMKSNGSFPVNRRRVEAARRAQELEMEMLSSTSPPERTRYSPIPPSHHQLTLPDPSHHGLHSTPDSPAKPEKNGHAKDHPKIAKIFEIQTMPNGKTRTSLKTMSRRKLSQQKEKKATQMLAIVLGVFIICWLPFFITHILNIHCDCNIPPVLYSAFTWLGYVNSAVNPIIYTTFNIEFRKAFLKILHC
On the technique in general: Calcium assays in cells follow changes in intracellular calcium, usually with a dye or a luminescent sensor.
The inhibition is the change of the read-out against control, counted positive when it falls. `Cn1cc(S(=O)(=O)N2CCOCC2)cc1C(=O)Nc1cccc(C#N)c1`: the inhibition is 1.46%.

Take `CC(C)Oc1ccc(CNC(=O)Cn2nc(N3CCN(c4ccccc4)CC3)ccc2=O)cc1`: the inhibition was found to be 1.56%.

Turning to `Cc1ccc(C(=O)c2oc3ccccc3c2NC(=O)Cc2ccccc2)cc1`, the inhibition was -2.97%. `CCCCn1c(=N)n(CCOc2ccccc2OC)c2ccccc21`: the inhibition stood at 3.82%. As to `Cc1ccc(CSc2nc(-c3ccccc3C)nc3c2Cc2c(CO)cnc(C)c2O3)cc1`, the inhibition was -2.61%. Next, `CCOc1ccc(-c2nc(SCC(=O)Nc3cc(F)ccc3F)n3[nH]c(=O)cc3n2)cc1`: 0.617%.

For `COc1ccc(-c2ccc(=O)n(CC(=O)Nc3ccc(OC)c(OC)c3)n2)cc1`, the inhibition is 14.9%. Take `O=C(Nc1ccc(N2CCOCC2)c(Cl)c1)c1ccc(S(=O)(=O)N2CCOCC2)cc1`: the inhibition was active: 34.4%. Take `COc1cc(OC)c(OC)cc1CNCCCSc1nnnn1C`: the inhibition is -4.98%. As for `CCc1ccc(OCc2cc(=O)n3cc(C)sc3n2)cc1`, the inhibition stood at 8.29%.

On to `CCOc1ccc2oc(=O)cc(CN3CCN(c4ccccc4OC)CC3)c2c1`, for which the inhibition is -8.38%. With `COc1ccc(C(=O)N(Cc2cc(OC)c(OC)c(OC)c2)C2CCS(=O)(=O)C2)cc1Cl` (configuration not stated), the inhibition was 17.4%. Consider `O=C(CN1C(=O)COc2ccc(S(=O)(=O)N3CCOCC3)cc21)N1CCN(c2ccccc2F)CC1`, for which the inhibition stood at 6.86%. For `CCc1cccc(NC(=O)c2c(C)oc3nc(C)nc(N4CCCC4)c23)c1`, the inhibition was found to be 9.3%. `Cc1ccc(NC(=O)C(=O)NCC2(c3ccccc3)CCCC2)cc1C`: the inhibition was found to be 8.38%. The result for `Cc1cc([N+](=O)[O-])ccc1NC(=O)/C=C/c1cccs1` reads active: 43.8%; that for `CCCOc1ccc(CNC(=O)CN2C(=O)c3cccnc3Oc3ccc(C)cc32)cc1`, -2.76%; that for `COC(=O)C1CCN(c2csc3ccc(Cl)cc3c2=O)CC1`, 1.43%.

Consider `O=C(NCCCO)c1nn(-c2ccc(Cl)cc2)nc1CO`, for which the inhibition was -7.24%. Regarding `COc1cc(-c2nc3ccc(Cl)cn3c2Nc2ccc3c(c2)OCCO3)ccc1O`, the inhibition turned out to be 8.99%. Next, `Cc1cccc(CSc2nnc3[nH]c(=O)cc(-c4ccccc4)n23)c1`: -10.6%. For the compound `O=C(c1ccc2c(c1)N(Cc1ccc(Cl)cc1)C(=O)c1ccccc1S2(=O)=O)N1CCN(c2ccccn2)CC1`, the inhibition stood at 10.5%. With `O=C(Nc1cc(Cl)cc(Cl)c1)c1ccc(F)c(S(=O)(=O)N2CCN(c3ccccc3F)CC2)c1`, the inhibition is -10.8%. `Cc1cc(NC(=O)C2CCCN(S(=O)(=O)c3cccc4nsnc34)C2)ccc1Br` (configuration not stated): the inhibition is -2.82%. Consider `CCOc1ccc(NC(=O)N2CCC(N3CCCCC3)CC2)cc1`, for which the inhibition is -9.49%.

Turning to `Cc1ccc(CN2COc3c(Cl)cc4c(-c5ccccc5)cc(=O)oc4c3C2)cc1`, the inhibition is -6.74%. Take `Cc1ccc(NC(=O)COc2ccc3oc4c(c3c2)CCCC4)cc1C`: the inhibition stood at 8.65%. For `CCOc1ccccc1NC(=O)c1c(NC(=O)Cc2ccc(OC)cc2)sc2c1CCC2`, the inhibition is -12.1%. With `CCc1cccc(NC(=O)c2ccc3c(c2)c(C)c(C)n3Cc2ccc(F)cc2)c1`, the inhibition was -2.7%. As for `Cc1ccc(OCC(=O)Nc2cccc(C(=O)OCc3cc(=O)n4c(C)csc4n3)c2)cc1`, the inhibition turned out to be 16.3%. Regarding `Cn1c(C(=O)Nc2ccc(OC(F)(F)F)cc2)cc2c(=O)n3ccccc3nc21`, the inhibition was 10.6%. The result for `COc1ccccc1CNC(=O)c1nnn(CC(=O)Nc2c(C)cccc2C)c1N` reads -3.47%; that for `Cc1ccccc1OCC(=O)OCc1cc(=O)n2nc(-c3cccs3)sc2n1`, -7.48%. Next, `COc1ccccc1N1CCN(CC(=O)N2N=CCC2c2ccccc2)CC1` (configuration not stated): active: 41.7%; `Cc1ccc(CNC(=O)CN2N=C(c3ccccc3)CCC2=O)cc1`: 11.7%. As to `Cc1ccc(N(CC(=O)Nc2ccc(C)c(Cl)c2)S(=O)(=O)c2cccs2)cc1`, the inhibition was 0.731%. For `CC1=C(C(=O)OC2CCCC2)C(c2ccccc2C(F)(F)F)CC(=O)N1` (configuration not stated), the inhibition is -0.62%. In the case of `O=S(=O)(c1ccc(-c2cnc(C3CC3)o2)cc1)N1CCN(c2ccccc2)CC1`, the inhibition was 19.6%. On to `CCOc1ccccc1NC(=O)Cn1c(=O)n(C(C)C)c(=O)c2oc3ccccc3c21`, for which the inhibition is -5.43%. Next, `Cc1cccc(CSc2ncccc2C(=O)O)c1`: -14.8%. `COc1ccc(-n2c(=O)c3ccc(C(=O)NCc4ccc(C)cc4)cc3n(Cc3ccc(Cl)cc3)c2=O)cc1`: the inhibition worked out at 1.14%.

Take `COc1ccc(-n2nc3c(N4CCCC(C(=O)NCCc5ccccc5C)C4)nnc(C)c3c2C)cc1` (configuration not stated): the inhibition was -19.9%. Regarding `COCCn1c(C)cc(O)c(C(c2ccc(F)cc2)N2CCC(C)CC2)c1=O` (configuration not stated), the inhibition is -1.9%.

In the case of `COc1ccc(CCNC(=O)c2ccc(Cn3c(=O)c4ccccc4n(Cc4cccc(F)c4)c3=O)cc2)cc1OC`, the inhibition came out at 7.22%.

For `CCc1ccc(NC(=O)C2CCCN2S(=O)(=O)c2ccc3c(c2)CCCC(=O)N3)cc1` (configuration not stated), the inhibition is -6.03%. For `CCn1nc(CC(=O)Nc2ccc(-n3cnnn3)c(OC)c2)c2ccccc2c1=O`, the inhibition is active: 34.6%. For `COc1ccc(C(C)=O)cc1CC(=O)Nc1cccc(S(=O)(=O)N2CCOCC2)c1`, the inhibition is active: 32.8%. Next, `Cc1cc2c(cc1NS(=O)(=O)c1cccc(C#N)c1)n(C)c(=O)c(=O)n2C`: 10%; `CCc1cccc(C)c1NC(=O)Cn1nnc(-c2nc(-c3ccccc3F)no2)c1N`: -6.35%; `Cn1cc(S(=O)(=O)N2CCCCCC2)cc1C(=O)Nc1ccc(Cl)c(C(F)(F)F)c1`: -0.747%. With `CC1=Nc2cc(C(=O)N3CCC(C)CC3)ccc2Sc2ccc(Cl)cc21`, the inhibition is 13.2%.

With `CCOc1ccc(OCCOCCN2CCc3ccccc3C2)cc1`, the inhibition is active: 68.4%. Next, `CCCOc1ccc(C2C(=O)N(C3CCC(C)CC3)CC(=O)N2Cc2cccc(OC)c2)cc1OC` (configuration not stated): 9.61%; `C[C@@H]1C2CC(C/C2=N\NC(=O)c2ccncc2)C1(C)C` (some centres not stated): active: 35.6%; `CCOC(=O)C1CCCN(CC(=O)Nc2cc(C)c3c(=O)oc4ccccc4c3n2)C1` (configuration not stated): -6.41%. In the case of `Cc1cc(C)cc(NC(=O)C2CCN(S(=O)(=O)c3cn(C)cn3)CC2)c1`, the inhibition stood at 16.1%. On to `CC(C(=O)Nc1cc(Cl)cc(Cl)c1)N1CCCC1` (configuration not stated), for which the inhibition is active: 89.1%. `O=c1oc2ccc3ccccc3c2cc1-c1nnc(Nc2ccccc2F)s1`: the inhibition was determined as 13.4%. In the case of `COc1ccc(-c2n[nH]c3c2cnc2ccc(F)cc23)cc1`, the inhibition was -15.3%. For the compound `CCCSc1nc(-c2ccccc2)[nH]c1S(=O)(=O)c1ccc(C)cc1`, the inhibition was -13.4%. As for `COc1ccc(-c2cc3ccc(O)c(CN4CCCC4)c3oc2=O)cc1`, the inhibition is -7.02%. Consider `Cc1ccc(-c2c(C(=O)NCCc3ccccc3)oc(=O)c3ccccc23)cc1`, for which the inhibition was -5.8%.
